Sequences and labels used below:
T1: UNK ZnF1-3 (human, UniProt Q9C0B0 31-174)
T1 sequence: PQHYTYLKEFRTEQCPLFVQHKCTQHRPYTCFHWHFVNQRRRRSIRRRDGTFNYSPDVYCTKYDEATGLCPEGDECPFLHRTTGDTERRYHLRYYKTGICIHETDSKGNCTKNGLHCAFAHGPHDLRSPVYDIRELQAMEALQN

B1: chr8:98289279:98289280:-_ENSG00000180543_ENST00000322128|hu_mus|FALSE|FALSE (ssRNA)
RNA: GGGAGUUCUACAGUCCGACGAUCCUCCAGUCUGUUCAAAUAGCUCAAUACCUCCUUAUCUUUGGUAUUCAGAAAAGCUGACAGCUGGGGAUGGUUCUGAAAAGCUUGCCCCCAGAAGCCCGGAAUGCUCUGGAUGAGGAGGUUCAACAGAGGAUUGAGCAUCA
B2: chr7:141450121:141450122:+_ENSG00000106028_ENST00000265304|hu_mus|hu_hu_hu_mus_True|28_108 (ssRNA)
RNA: GGGAGUUCUACAGUCCGACGAUCUCAUCCUUUCUACGCCUUUUCUUUUGUCUGGUCACUCAGAAAUAUAAUGUUAUCAGCUAUGAUUGUUGUUGCUUGCCGCCUCACAUUAUUUUUAUCCAUGUACUCGCCAUAGUCCACUUUCAACAGAGGAUUGAGCAUCA
B3: 87826391_87826511_3391_3pUTR_ENSG00000008277_ENST00000398209|human|control|control (ssRNA)
RNA: GGGAGUUCUACAGUCCGACGAUCUGAUUGUGACGGAAUUUUUAGGCAUUUGGCAAAAUACACUUGUGUGUAACAGCUGCAUUUUUUUAAAAUUUUAAAAAUGUUACAUAUAUACAAUUGUCCUUGUAUGCUAAUAUAAAUAUGCAACAGAGGAUUGAGCAUCA
B4: 9430138_9430258_10655_3pUTR_ENSMUSG00000040209_ENSMUST00000041124|mouse|control|control (ssRNA)
RNA: GGGAGUUCUACAGUCCGACGAUCCAUCUGCUCAGACAGAGAACGGCUUUCUCUUGCAGGGAGGGUAGCCACUCACUGAGCAGAAUGAGUGUCUAGAGGGAAGCAUCCAUGUACUGGGGUGUUGACUUCAGAGCAAGCAUUCAGCAACAGAGGAUUGAGCAUCA
B5: 71835330_71835548_1477_CDS_ENSMUSG00000063884_ENSMUST00000082094|mouse|control|control (ssRNA)
RNA: GGGAGUUCUACAGUCCGACGAUCUCUAUUGGCCACAUCCAAUGCUUGAAGAAGACCUAUGAAUAUUUGGUAGUGGGGAAGGAACACUGAAGGUAUUAGGUCCUUAUACCACUUCAAGGUGACAUCAAUUUGUUCCAGUGAACACAACAGAGGAUUGAGCAUCA
B6: chr1:244855233:244855234:+_ENSG00000121644_ENST00000302550|hu_mus|hu_hu_hu_mus_True|38_88 (ssRNA)
RNA: GGGAGUUCUACAGUCCGACGAUCCAUCAGAUGGUAGGCGUUGCCCUUGUAUUCUUUCCCCAGUUCUUCUACAAUUUUCUCUAUAUCAUCUUCUAGAAAGUCCGUGCUUCCUAGAACAACAGCUUCUUUAAAUUUAAAUGUUUCCAACAGAGGAUUGAGCAUCA

The other results are listed elsewhere or left out.

The assay addresses T1, UNK ZnF1-3. Kind of assay: nsRBNS (natural sequence RNA bind-n-seq); RBNS binding buffer (assumed for nsRBNS): 25 mM Tris pH 7.5, 150 mM KCl, 3 mM MgCl2, 0.01% Triton X-100, 500 ug/ml BSA, 20 U/ml SUPERase-In, 4 C; UNK is unkempt and MSI1 is Musashi-1; names of the RNAs are library labels; protein concentration not given here; high values mean tight binding.
B1 showed a binding signal of 0.401 enrichment R.
Regarding B2, the binding signal worked out at 0.42 enrichment R.
For B3, the binding signal stood at 2.3 enrichment R.
The same measure for B4: 1.06 enrichment R; for B5: 1.2 enrichment R.
The figure for B6 is 1.17 enrichment R.

The record behind these values is article PMC12136788.
